# Test results from PMC6664820, “Novel natural and synthetic inhibitors of solute carriers SGLT1 and SGLT2” (Pharmacology Research & Perspectives, 2019).
# About 40 (2%) of roughly 1,900 compounds showed an effect of 50% or more. Some of the results follow. Residues, ends and D or L forms follow the SMILES beside them.
# Target: human SGLT1 (hSGLT1) (human, UniProt P13866)
# Assay: primary screen, percent of control activity; higher = less effect of the substance
# Design: single well
# Details: 50 µM
# Method in brief: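 Single-point screen at 50 µmol/L in CHO-hSGLT1 cells, with 160 µmol/L 1-NBD-glucose in glucose-free DMEM for 90 min at 37°C. Fluorescence from isopropanol extracts was calibrated, and CHO wild-type uptake was subtracted. Data are percent of uptake without compound.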
# human SGLT1 (hSGLT1), sequence (P13866 whole entry, looked up): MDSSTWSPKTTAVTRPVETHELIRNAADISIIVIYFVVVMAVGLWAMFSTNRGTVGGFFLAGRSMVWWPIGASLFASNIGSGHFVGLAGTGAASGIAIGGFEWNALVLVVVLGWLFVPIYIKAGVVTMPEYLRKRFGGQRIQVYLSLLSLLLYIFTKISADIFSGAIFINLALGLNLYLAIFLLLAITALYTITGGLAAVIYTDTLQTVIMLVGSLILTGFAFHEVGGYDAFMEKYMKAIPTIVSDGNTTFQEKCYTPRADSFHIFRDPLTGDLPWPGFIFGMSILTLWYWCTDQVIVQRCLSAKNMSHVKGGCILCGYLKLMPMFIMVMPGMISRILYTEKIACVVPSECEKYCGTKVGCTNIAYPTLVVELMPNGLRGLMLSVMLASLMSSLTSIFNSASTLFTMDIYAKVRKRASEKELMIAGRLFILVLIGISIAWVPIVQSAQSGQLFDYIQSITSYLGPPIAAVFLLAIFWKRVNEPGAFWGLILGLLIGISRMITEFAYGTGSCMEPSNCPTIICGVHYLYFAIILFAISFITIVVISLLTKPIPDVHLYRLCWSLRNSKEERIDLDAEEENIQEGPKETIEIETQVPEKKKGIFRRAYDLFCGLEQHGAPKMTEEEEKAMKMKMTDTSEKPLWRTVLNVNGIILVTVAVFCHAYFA
row,Compound,NORMALIZED SGLT1 ACTIVITY (%)
1,CC12CCC(O)CC1CCC1C2[C@H](O)CC2(C)C(C3=CC(=O)OC3)CCC12O (stereo partly drawn),155
2,COC(=O)NC(=S)Nc1ccccc1NC(=S)NC(=O)OC,130
3,CC(C)CC(NC(=O)CN)C(=O)NC(Cc1ccccc1)C(=O)O (stereo not drawn) (H-Gly-Leu-Phe-OH; configuration not given here),94
4,Cn1c(=O)c2[nH]cnc2n(C)c1=O,147
5,CN[C@@H]1[C@H](OC2[C@H](O[C@H]3[C@H](O)[C@@H](O)[C@H](NC(=N)N)[C@@H](O)[C@@H]3NC(=N)N)O[C@@H](C)[C@]2(O)C=O)O[C@@H](CO)[C@H](O)[C@H]1O.O=S(=O)(O)O (stereo partly drawn),114
6,CN(C)CCN(Cc1ccccc1)c1ccccn1.O=C(O)CC(O)(CC(=O)O)C(=O)O,57
7,CC12CC3CC(C)(C1)CC(N)(C3)C2.Cl,79
8,NC[C@H]1O[C@H](O[C@H]2[C@H](O)[C@@H](O[C@H]3O[C@H](CO)[C@@H](O)[C@H](N)[C@H]3O)[C@H](N)C[C@@H]2N)[C@H](N)C[C@@H]1O,106
9,CCc1nc(N)nc(N)c1-c1ccc(Cl)cc1,82
10,C=CC(C1=CC(=O)C(OC)=CC1=O)c1ccccc1 (stereo not drawn),190
11,COc1cnc(NS(=O)(=O)c2ccc(N)cc2)nc1,110
12,CC1(C)C(=O)C=C[C@@]2(C)C1=C(O)C(=O)[C@]1(C)C2CC[C@@]2(C)[C@H](c3ccoc3)C[C@H]3O[C@]321 (stereo partly drawn),45
13,CC(=O)O[C@H]1CC[C@@]2(C)C(C[C@@H](OC(C)=O)[C@@]3(C)C4=CC(=O)O[C@@H](c5ccoc5)[C@]4(C)CCC23)C1(C)C (stereo partly drawn),358
14,COc1ccc(-c2cc(=O)c3c(O)cc(O)cc3o2)cc1O,180
15,Cc1cc(NC(=O)C2=C(O)c3ccccc3S(=O)(=O)N2C)no1,97
16,NCCCN.O=C(O)C(O)C(O)C(=O)O (stereo not drawn),118
17,Cc1ccc(C(=O)Nc2ccc(S(=O)(=O)[O-])c3cc(S(=O)(=O)[O-])cc(S(=O)(=O)[O-])c23)cc1NC(=O)c1cccc(NC(=O)Nc2cccc(C(=O)Nc3cc(C(=O)Nc4ccc(S(=O)(=O)[O-])c5cc(S(=O)(=O)[O-])cc(S(=O)(=O)[O-])c45)ccc3C)c2)c1.[Na+].[Na+].[Na+].[Na+].[Na+].[Na+],114
18,CC(=O)[C@H]1CCC2C3CC=C4C[C@@H](O)CC[C@]4(C)C3CC[C@@]21C (stereo partly drawn),117
19,CC(C)CCCC(C)C1CCC2C3CC(=O)[C@H]4C[C@@H](O)CC[C@]4(C)C3CC[C@]12C (stereo partly drawn),107
20,CN(C)CC/C=C1\c2ccccc2Sc2ccc(Cl)cc21.Cl,87
21,CCCCCCCCCCCC[C@H](C(=O)O)[C@@H](C)C(=O)O,154
22,CCCc1cc(C(N)=S)ccn1,139
23,Cc1cccc(Nc2ccccc2C(=O)O)c1C,295

row,Compound,NORMALIZED SGLT1 ACTIVITY (%)
1,C=CCC1(C(C)CCC)C(=O)N=C([S-])NC1=O.[Na+] (stereo not drawn),94
2,C=CCSCC=C,93
3,CC(N)C(=O)OC(C)(C)Cc1ccc(Cl)cc1 (stereo not drawn),122
4,Cl.OC(CCN1CCCC1)(c1ccccc1)C1CCCCC1 (stereo not drawn),45
5,CC(C)(C)NCC(O)c1ccc(O)c(CO)c1 (racemic),104
6,COc1cc2c(cc1-c1coc3c4c(c(OC)cc3c1=O)OC(C)(C)C=C4)OCO2,94
7,O=C1CCC(N2C(=O)c3ccccc3C2=O)C(=O)N1 (stereo not drawn),171
8,COc1cccc2c1CCC1CC(=O)CC[C@]21C (stereo partly drawn),137
9,CCC/C=C1\OC(=O)C2=C1CCC=C2,126
10,C[C@@H]1C(=O)O[C@H]2[C@H]1CC[C@@]1(C)C=CC(=O)[C@@]3(C)O[C@@]213,96
11,N=c1[nH]c(=O)c2[nH]c(=O)c(=O)[nH]c2[nH]1,125
12,OC[C@@H](O)[C@@H](O[C@@H]1O[C@H](CO)[C@@H](O)[C@H](O)[C@H]1O)[C@H](O)[C@@H](O)CO,95
13,CN(C)CCC[C@@]1(c2ccc(F)cc2)OCc2cc(C#N)ccc21.O=C(O)C(=O)O,208
14,OC[C@H]1O[C@@](CO)(O[C@H]2O[C@H](CO)[C@@H](O)[C@H](O)[C@H]2O)[C@@H](O[C@H]2O[C@H](CO)[C@@H](O)[C@H](O)[C@H]2O)[C@@H]1O,96
15,CC(C)(O)[C@@H]1Cc2cc3ccc(=O)oc3cc2O1,135
16,Cl.N/C(=N\C(=O)c1nc(Cl)c(N)nc1N)NCc1ccccc1,167
17,CN1CCN(C2=Nc3ccccc3Oc3ccc(Cl)cc32)CC1.O=C(O)CCC(=O)O,117
18,CC(C)NCC(O)c1cc(O)cc(O)c1 (stereo not drawn),96
19,CCC(C)C(=O)O[C@@H]1C[C@@]2(C)[C@H](c3ccoc3)OC(=O)CC23OC2(C)O[C@]14[C@]1(C)[C@@H](CC(=O)OC)C5(C)CC1(O)[C@](O)(C5OC(=O)C1(C)OC1C)[C@@H](OC(C)=O)[C@]34O2 (stereo partly drawn),159
20,Br.COc1ccc2c(c1)[C@]13CCCC[C@H]1[C@H](C2)N(C)CC3,64
21,O=C(O)CCCC[C@@H]1SC[C@@H]2NC(=O)N[C@@H]21,141
22,COc1cc2c(cc1OC)[C@@H]1C(=O)c3ccc4c(c3O[C@@H]1CO2)C=CC(C)(C)O4,334
